Source: the RNAGym collection of RNA variant scans (doi:10.1073/pnas.2313332121)
Variants at the floor of the assay are shown more often than the library holds them.

B1: TPR 5TU (parent)
chain: GGAUCUUCUCGAUCUAACAAAAAAGACAAAUCUGCCACAAAGCUUGAGAGCAUCUUCGGAUGCAGAGGCGGCAGCCUUCGGUGGCGCGAUAGCGCCAACGUUCUCAACUAUGACACGCAAAACGCGUGCUCCGUUGAAUGGAGUUUAUCAUG

Variants of: B1
Experiment: polymerase ribozyme fitness, log enrichment relative to wild type (log ratio); higher = more active; in vitro selection for triplet polymerase activity
How it was run: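 Input and output libraries were sequenced on Illumina after a single in vitro selection round, run in triplicate on PCR-built, transcribed mutant libraries of each subunit of a heterodimeric triplet polymerase ribozyme. Selection annealed libraries to a biotinylated primer, the partner subunit and triplets, incubated them frozen at −7 °C, then gel-excised extended constructs for streptavidin-bead capture and RT-PCR. Genotypes with ≥10 input reads and ≥1 read per output were kept. Fitness is the logarithm, taken in base 2, of genotype enrichment divided by wild-type enrichment, using inverse-variance-weighted replicate averages.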

Variant | polymerase ribozyme fitness (log ratio)
C72G C93G C95U C118G A138C U145A | ≤ -4.2
C69U C87A A113G G128C | ≤ -4.2
A73U A91U A106C G136C | ≤ -4.2
A73U G83C C123G | -2.93
C69G C87A | ≤ -4.2
G74A G141A | -2.42
G68C G94A C96G C103G U134A | ≤ -4.2
G68C A150U | ≤ -4.2
G70C C87A U101A G128A G136U | ≤ -4.2
A73G G84C C96U C114U | ≤ -4.2
A73G G86A C87G G88U C116U C118A G141C | ≤ -4.2
G68U A98U C103A A110U | ≤ -4.2
A73C C99U C149U | ≤ -4.2
A73U G94C U101C C123A | ≤ -4.2
G74A G84A A107G | ≤ -4.2
C69U C85U A98G A115C G143C | ≤ -4.2
G68C A89C C96A A113G G124C U134C | ≤ -4.2
C72G C118U | ≤ -4.2
C72U G92U C99U A142C C149A A150U | ≤ -4.2
G68U C79A U90C C95G C96U U111A U148A U151C | ≤ -4.2
C72U A89G C95A | -1.39

Variant | polymerase ribozyme fitness (log ratio)
A73U C79G C87A C99G G117U | ≤ -4.2
A73G A122U G126U | -0.405
A73U U82A C95U | -1.04
A73U G84A C108G G141A U145C | ≤ -4.2
G68C C93A C108G G117A A138G | ≤ -4.2
G68U A89G C93U G117U | ≤ -4.2
C69U A91U | ≤ -4.2
G71A G124A U134A | ≤ -4.2
G70U C85A C95U U130A | ≤ -4.2
G68A G86C A107U G140U | ≤ -4.2
G74C C87G | ≤ -4.2
A73C U77C C93U | ≤ -4.2
G70C G80A U139C | ≤ -4.2
G74C A147C | -4.06
C72G C76A U104A | ≤ -4.2
G74A C85G C87U C123A | ≤ -4.2
C69A A121G | -1.74
G68U A150G | ≤ -4.2
A73U C87U G88A A110U | ≤ -4.2
G70A C85G A120U G126A U134A | ≤ -4.2
C72U G84A C87A C108G U134G G140A | ≤ -4.2

Variant | polymerase ribozyme fitness (log ratio)
C72A C85G G133U | ≤ -4.2
C72U A73C C85A A110C | ≤ -4.2
G70A C93A | ≤ -4.2
A73G G86U C99G U101A U135G | ≤ -4.2
G74A U82G G83A G86U G126C | ≤ -4.2
A73C G94A | ≤ -4.2
G70C G83A C87U G117C | -3.9
A73U A107U U127C | ≤ -4.2
A73U C95U G140A A142C | ≤ -4.2
A73U G84A | -2.32
G71A C93G | ≤ -4.2
A73G G83U A97C C105A A106G U127A G128U | ≤ -4.2
G71C C79U A115U A120G G133A | ≤ -4.2
C72U A73C A98G C118A G124C U135C U139A | ≤ -4.2
G70A A91U | ≤ -4.2
G68U A91U | ≤ -4.2
G68U A91G | ≤ -4.2
C72G C123G | ≤ -4.2
C69A A73C C76U C85U U146A | ≤ -4.2
G68C A89G G94A A113U | ≤ -4.2
G70A C87A A89U U101G C118A G124C | ≤ -4.2

Variant | polymerase ribozyme fitness (log ratio)
C72A C85A U135G G136C | ≤ -4.2
A73C G92C | -3.64
A73C G92U | ≤ -4.2
C69A C85G A106G | ≤ -4.2
C69U C103G C114U | ≤ -4.2
G68C G140U | ≤ -4.2
G71U A107U G143U | ≤ -4.2
G71U C76A C95U C125U A142C | ≤ -4.2
A73U G84C C116A | -2.63
G74A C79U C93A C103A | ≤ -4.2
A73G G84A A107G | ≤ -4.2
A73G C85A C93A G141C | ≤ -4.2
A73C G92A U101G | ≤ -4.2
G68A U151G | ≤ -4.2
G71U U77G C79A C85G | ≤ -4.2
G68C G92A U145G A147C | ≤ -4.2
G70U U82A C93U A110G U135A | ≤ -4.2
G70C U101G G136U U145G | ≤ -4.2
A73U C85A A147C | -2.75
G68U U127G | ≤ -4.2
